Experimental data from PubChem BioAssay AID1508624 (National Center for Advancing Translational Sciences (NCATS), 2021).
The whole screen tested about 48,000 compounds, of which about 120 (0.25%) were called active. Another 4% or so got no clear call; they are omitted. Calls come from the whole dose curve; as a rule, active = well fitted activation curve with a large enough effect; inconclusive = small, poorly fitted or top-dose-only effect, or another doubt; inactive = no such curve, though single readings can be large or run the other way. The list shows a part of the results.

Experiment: Primary qHTS for Identification of Small Molecule Activators of Huntingtin-Antisense Promoter Activity; note: nearly all actives have a fitted effect of over 55% in size
Settings: HEK293 HTT-AS promoter firefly luciferase reporter, 24 h; series mostly up to 57.5 µM; activity change, positive = activation: at the top concentration
In short: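 Luminescence was read after Dual-Glo reagent and a 10 min room-temperature incubation. Values were normalized to vehicle (0% activity) and zero RLU (-100% activity). Reporter HEK293 cells had been exposed to compounds (up to 57.5 uM final) for 24 h.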

Activity change, positive = activation, inactive:
COc1ccccc1C(=O)NC1(C(F)(F)F)C(=O)Nc2c1c(=O)[nH]c(=O)n2CCc1ccccc1 (configuration not stated) -4.75%
Cc1ccc(C)c(CN2CCCN(Cc3cc(C)ccc3C)S2(=O)=O)c1 -7.98%
COC(=O)c1ccc(-n2c(/C=C\c3cccc(Br)c3)nc3ccccc3c2=O)cc1 -20.5%
Cc1cnc(NS(=O)(=O)c2ccc(N)cc2)nc1 -9.11%
CCc1nc2ccccc2n1CCCCOc1ccccc1C -49.3%
Cc1ccc(S(=O)(=O)C(CNC(=O)C(=O)NCCc2ccccc2)c2ccco2)cc1 (configuration not stated) -15.5%
COc1ccc(S(=O)(=O)c2cn(Cc3ccccc3)c3cc(N4CCCC4)c(F)cc3c2=O)cc1 -13.4%
COc1ccc(CCNC(=O)CCCCn2c(=O)c3ccccc3n(CC(=O)Nc3ccccc3C)c2=O)cc1OC -4.98%
CCN1C(C(=O)c2ccccc2)=C(OC(=O)C(C)C)c2ccccc2S1(=O)=O -26.8%
O=C(CCNS(=O)(=O)c1ccc2c(c1)CCN2C(=O)C1CC1)N1CCN(c2ccc(F)cc2)CC1 -44.7%
CCc1ccccc1NC(=O)Cn1c(=O)nc(-c2ccccc2)c2ccccc21 -10.1%
COc1ccc(CCNC(=O)CCn2c(=O)c3ccccc3n(Cc3ccc(Cl)cc3)c2=O)cc1OC -8.18%
COc1ccc(CNC(=O)C2CCN(c3nc4ccc(C)cc4[nH]3)CC2)cc1 0.409%
CCn1c2c(c(=O)n3ncc(C(=O)Nc4cccc(Cl)c4C)c13)CN(Cc1ccc(OC)cc1)CC2 -13%
CCOC(=O)c1c(C)[nH]c(C)c1S(=O)(=O)N1CCC(C(=O)NCc2ccc(C)cc2)CC1 -5.94%
CCCC(O)c1nc2ccccc2n1CCCCOc1ccc(OC)cc1 (configuration not stated) -36.5%
Cc1cc(C)cc(NC(=O)CSc2nncn3c2cc2occc23)c1 -33.1%
CC[C@H]1OC(=O)[C@H](C)[C@@H](O[C@H]2C[C@@](C)(OC)[C@@H](O)[C@H](C)O2)[C@H](C)[C@@H](O[C@@H]2O[C@H](C)C[C@H](N(C)C)[C@@H]2O)[C@](C)(OC)C[C@@H](C)C(=O)[C@H](C)[C@@H](O)[C@]1(C)O -26.4%
O=C(CC1N=C2c3ccccc3N=C(SCc3ccc(F)cc3)N2C1=O)NCc1cccs1 (configuration not stated) -14.6%
CCOC(=O)c1scc(-c2ccc(C)cc2)c1S(=O)(=O)Nc1cc(Cl)ccc1OC -33.1%
CCn1c(SCC(=O)c2ccc([N+](=O)[O-])cc2)nnc1-c1ccc(Cl)cc1 8.33%
COc1cccc(CNC(=O)Cn2cc3c(n2)-c2c(oc(C(=O)N4CCCC4)c2C)CC3)c1 -32%
CCc1ccc(NC(=O)Cn2ncc3c4ccccc4n(C)c3c2=O)cc1 -3.04%
CCCCn1cc(S(=O)(=O)c2ccc(OC)cc2)c(=O)c2cc(F)c(F)cc21 -12.3%
CCN(CC)C(=O)c1sc2c(c1C)c(=O)n(-c1ccccc1)c(=O)n2Cc1cc(=O)n2ccccc2n1 -2.19%
Clc1cccc(-c2csc(-c3nc(-c4ccc(Br)s4)cs3)n2)c1 -5.23%
COC(=O)Cn1c(CN2CCN(c3ccc(OC)cc3)CC2)nc2c1c(=O)[nH]c(=O)n2C -13%
CCOC(=O)c1c(S(=O)(=O)NCC(=O)Nc2cccc(CC)c2)c(C)n(C)c1C -14.5%
CCOc1ccc(NC(=O)c2cc(S(=O)(=O)NC3CCCC3)ccc2F)cc1 -21.6%
Cc1ccc(OCc2nc(-c3ccc(C(=O)N4CCN(c5ccc(Cl)cc5)CC4)cc3)oc2C)cc1 -17.9%
CC(C)CCNC(=O)CSc1c2c(nc3ccc(Cl)cc13)CCCC2 -47.4%
CCOc1ccc(CNC(=O)C2CCCN(S(=O)(=O)c3ccc4c(c3)CCCC(=O)N4)C2)cc1 (configuration not stated) -31.9%
Cc1cccc(-c2nc(SCC(=O)Nc3cccc(C(F)(F)F)c3)n3[nH]c(=O)cc3n2)c1 -14.3%
Cc1cc(C(=O)NCc2ccccc2C)c2c(C)nn(-c3cccc(F)c3)c2n1 -12.5%
CCOC(=O)C1=C(CN2CCN(CC)CC2)NC(=O)NC1c1ccc(Cl)cc1 (configuration not stated) -3.91%
CCCCCCn1c(CNC(=O)c2ccccc2)nc2ccccc21 -18.9%
CCCn1c(=O)sc2cc(NC(=O)c3ccccc3OCC)ccc21 -4.45%
CC(C)Sc1ncc(Cl)c(C(=O)Nc2ccc(S(=O)(=O)Nc3ncccn3)cc2)n1 -11.3%
Cn1c(=O)cc(SCC(=O)N2CCN(c3ccccc3F)CC2)c2cc(Cl)ccc21 -3.11%
COc1ccc(CNC(=O)CSc2n[nH]c(-c3ccc(OC)cc3)n2)cc1 -34.8%
CC(C)c1ccc2c(c1)-c1ccccc1S(=O)(=O)N2CC(=O)N1CCCCC1 29.6%
COc1cc(Cn2c(=O)sc3ccccc32)ccc1OCCC(C)C -23%
Cc1cc(Cl)ccc1OCC(=O)Nc1c(C(=O)c2ccccc2)oc2ccccc12 -13.3%
O=C(CSc1ncc(-c2ccccc2)[nH]1)Nc1cccc(C(F)(F)F)c1 -2.67%
Cc1ccccc1-c1nc(CS(=O)(=O)CC(=O)Nc2cc(Cl)cc(Cl)c2)c(C)o1 -39%
CCn1nc(C)c(CCN(C)C(=O)Nc2cc(C)cc(C)c2)c1C 5.13%
O=C(Nc1cnc(N2CCC(N3CCCCC3)CC2)c(C(=O)O)c1)c1ccc(Br)cc1 -6.97%
Cc1ccc(CSc2nc3ccc(NC(=O)COc4ccc(F)cc4)cc3s2)cc1 -3.63%
COc1ccccc1NC(=O)c1c(NC(=O)Cc2ccccc2)sc2c1CCC(C(C)(C)C)C2 (configuration not stated) 15.4% [at 11.5 µM, percent change from vehicle, -100% = no light]
CCc1ccc(CNC(=O)Cn2c(-c3cccs3)cc3cc(F)ccc32)cc1 -34.5%
COc1ccc(-n2c(=O)c3c(c4cc(OC)ccc4n3C)n(Cc3ccc(F)cc3Cl)c2=O)cc1 -17.3%
COc1ccc(-c2cc(C(C)=O)c(C)n2CCC(=O)Nc2ccc(C(F)(F)F)cc2)cc1 -41%
Nc1nonc1C(=O)NCCNCc1ccc(Cl)c(Cl)c1 -10.2%
COc1ccccc1NC(=O)Cn1c(=O)n(Cc2ccccc2)c(=O)c2c3c(sc21)CN(C(C)=O)CC3 -10.1%
CCn1ccc2c(OCC(=O)NCc3ccc(C)cc3)cccc2c1=O -23.1%
Cc1cc(C)nc(-n2nc(C)c3c2NC(=O)CC3c2cc(F)ccc2F)n1 (configuration not stated) -7.35%
CCN(Cc1ccccc1)C(=O)CN1C(=O)COc2ccc(S(=O)(=O)N(CC)CC)cc21 -25.4%
